# Some of the results follow.
# Legend:
# Test in all cases: glycan array binding signal (z-score within array); higher = stronger binding
# Settings in all cases: glycan notation: IUPAC condensed, linker removed
# [1] = biological target: Neu5Ac(a2-6)Gal(b1-4)GlcNAc(b1-3)[Neu5Ac(a2-6)Gal(b1-4)GlcNAc(b1-6)]GalNAc
# Outline: (§1)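 The Consortium for Functional Glycomics database supplied 3228 glycan arrays, of which those lacking an available protein sequence were dropped. The binding signal, a within-array Z-score, was averaged across arrays of the same protein sequence and across linkers. Negative scores can be read as non-binding.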
# [2] = biological target: Neu5Ac(a2-6)Gal(b1-4)GlcNAc(b1-6)GalNAc
# Outline: as §1
# [3] = biological target: Neu5Ac(a2-6)Gal(b1-4)GlcNAc(b1-6)[Gal(b1-3)GlcNAc(b1-3)]Gal(b1-4)Glc
# Outline: as §1
# [4] = biological target: Neu5Ac(a2-6)Gal(b1-4)GlcNAc(b1-6)[Gal(b1-3)]GalNAc
# Outline: as §1
# [5] = biological target: Neu5Ac(a2-6)Gal(b1-4)GlcNAc6S
# Outline: as §1
# Neu5Ac(a2-6)GalNAc = biological target: Neu5Ac(a2-6)GalNAc
# Outline: as §1
# [6] = biological target: Neu5Ac(a2-6)GalNAc(b1-4)GlcNAc
# Outline: as §1
# [7] = biological target: Neu5Ac(a2-6)GalNAc(b1-4)GlcNAc6S
# Outline: as §1
# [8] = biological target: Neu5Ac(a2-6)GlcNAc(b1-4)GlcNAc
# Outline: as §1
# [9] = biological target: Neu5Ac(a2-6)GlcNAc(b1-4)GlcNAc(b1-4)GlcNAc
# Outline: as §1
# Neu5Ac(a2-8)Neu5Ac = biological target: Neu5Ac(a2-8)Neu5Ac
# Outline: as §1
# [10] = biological target: Neu5Ac(a2-8)Neu5Ac(a2-3)Gal(b1-3)GalNAc(b1-4)[Neu5Ac(a2-3)]Gal(b1-4)Glc
# Outline: as §1
# [11] = biological target: Neu5Ac(a2-8)Neu5Ac(a2-3)Gal(b1-3)GalNAc(b1-4)[Neu5Ac(a2-8)Neu5Ac(a2-3)]Gal(b1-4)Glc
# Outline: as §1
# [12] = biological target: Neu5Ac(a2-8)Neu5Ac(a2-3)Gal(b1-4)Glc
# Outline: as §1
# [13] = biological target: Neu5Ac(a2-8)Neu5Ac(a2-3)Gal(b1-4)GlcNAc
# Outline: as §1
# [14] = biological target: Neu5Ac(a2-8)Neu5Ac(a2-3)[Gal(b1-3)GalNAc(b1-4)]Gal(b1-4)Glc
# Outline: as §1
# [15] = biological target: Neu5Ac(a2-8)Neu5Ac(a2-3)[GalNAc(b1-4)]Gal(b1-4)Glc
# Outline: as §1
# [16] = biological target: Neu5Ac(a2-8)Neu5Ac(a2-8)Neu5Ac
# Outline: as §1
# [17] = biological target: Neu5Ac(a2-8)Neu5Ac(a2-8)Neu5Ac(a2-3)Gal(b1-4)Glc
# Outline: as §1
# [18] = biological target: Neu5Ac(a2-8)Neu5Ac(a2-8)Neu5Ac(a2-3)[Gal(b1-3)GalNAc(b1-4)]Gal(b1-4)Glc
# Outline: as §1
# [19] = biological target: Neu5Ac(a2-8)Neu5Ac(a2-8)Neu5Ac(a2-3)[GalNAc(b1-4)]Gal(b1-4)Glc
# Outline: as §1
# [20] = biological target: Neu5Ac(a2-8)Neu5Ac(a2-8)Neu5Ac(a2-8)Neu5Ac(a2-3)[GalNAc(b1-4)]Gal(b1-4)Glc
# Outline: as §1
# [21] = biological target: Neu5Ac(a2-8)Neu5Gc(a2-3)Gal(b1-4)GlcNAc
# Outline: as §1
# [22] = biological target: Neu5Ac(b2-6)Gal(b1-4)GlcNAc
# Outline: as §1
# Neu5Ac(b2-6)GalNAc = biological target: Neu5Ac(b2-6)GalNAc
# Outline: as §1
# [23] = biological target: Neu5Ac9Ac(a2-3)Gal(b1-3)GlcNAc
# Outline: as §1
# [24] = biological target: Neu5Ac9Ac(a2-3)Gal(b1-4)GlcNAc
# Outline: as §1
# [25] = biological target: Neu5Ac9Ac(a2-6)Gal(b1-4)GlcNAc
# Outline: as §1
# [26] = biological target: Neu5Gc(a2-3)Gal(b1-3)GlcNAc
# Outline: as §1
# [27] = biological target: Neu5Gc(a2-3)Gal(b1-3)[Fuc(a1-4)]GlcNAc
# Outline: as §1
# Neu5Gc(a2-3)Gal(b1-4)Glc = biological target: Neu5Gc(a2-3)Gal(b1-4)Glc
# Outline: as §1
# [28] = biological target: Neu5Gc(a2-3)Gal(b1-4)GlcNAc
# Outline: as §1
# [29] = biological target: Neu5Gc(a2-3)Gal(b1-4)GlcNAc(b1-3)Gal(b1-4)GlcNAc(b1-2)Man(a1-3)[Neu5Gc(a2-3)Gal(b1-4)GlcNAc(b1-3)Gal(b1-4)GlcNAc(b1-2)Man(a1-6)]Man(b1-4)GlcNAc(b1-4)GlcNAc
# Outline: as §1
# [30] = biological target: Neu5Gc(a2-3)Gal(b1-4)[Fuc(a1-3)]GlcNAc
# Outline: as §1
# [31] = biological target: Neu5Gc(a2-6)Gal(b1-4)GlcNAc
# Outline: as §1
# Neu5Gc(a2-6)GalNAc = biological target: Neu5Gc(a2-6)GalNAc
# Outline: as §1
# [32] = biological target: Neu5Gc(a2-8)Neu5Ac(a2-3)Gal(b1-4)GlcNAc
# Outline: as §1
# [33] = biological target: Neu5Gc(a2-8)Neu5Gc(a2-3)Gal(b1-4)GlcNAc
# Outline: as §1
binder,measurement,setting,value
Epa23 (Candida glabrata) (protein) MGSSHHHHHHSSGLVPRGSHMIPNPFEGTINNFPSGCSPNHGLYNRGLTMELYNYSYIHPQSIQSYFNTSTLKKMEKGQCWDPSYLDVNYPRTGYKTHNRFAKVNGIDGILDFEFNPTRSCVPSKGQLPQNYNYPLQFTLSNFTMLLYGYFKPKVTAKHTFTIFADDLLFLNFGAGNAFDCCQQQDTIDDFGNYQAYALWGSDTQQNTLTVNLDANIYYPIRMFYNNRDFKGALNMYFTTDESNTKINDFSGYLFNIPDSSEGCPAHISYETECGNVSG,glycan array binding signal (z-score),[1],-0.137
same,glycan array binding signal (z-score),[2],-0.254
same,glycan array binding signal (z-score),[3],-0.13
same,glycan array binding signal (z-score),[4],-0.052
same,glycan array binding signal (z-score),[5],-0.225
same,glycan array binding signal (z-score),Neu5Ac(a2-6)GalNAc,-0.069
same,glycan array binding signal (z-score),[6],-0.232
same,glycan array binding signal (z-score),[7],-0.174
same,glycan array binding signal (z-score),[8],-0.092
same,glycan array binding signal (z-score),[9],-0.232
same,glycan array binding signal (z-score),Neu5Ac(a2-8)Neu5Ac,-0.353
same,glycan array binding signal (z-score),[10],-0.233
same,glycan array binding signal (z-score),[11],0.073
same,glycan array binding signal (z-score),[12],-0.193
same,glycan array binding signal (z-score),[13],-0.277
same,glycan array binding signal (z-score),[14],-0.093
same,glycan array binding signal (z-score),[15],-0.297
same,glycan array binding signal (z-score),[16],-0.188
same,glycan array binding signal (z-score),[17],-0.287
same,glycan array binding signal (z-score),[18],-0.281
same,glycan array binding signal (z-score),[19],-0.215
same,glycan array binding signal (z-score),[20],-0.195
same,glycan array binding signal (z-score),[21],-0.234
same,glycan array binding signal (z-score),[22],-0.22
same,glycan array binding signal (z-score),Neu5Ac(b2-6)GalNAc,-0.205
same,glycan array binding signal (z-score),[23],-0.244
same,glycan array binding signal (z-score),[24],-0.225
same,glycan array binding signal (z-score),[25],-0.239
same,glycan array binding signal (z-score),[26],-0.228
same,glycan array binding signal (z-score),[27],-0.199
same,glycan array binding signal (z-score),Neu5Gc(a2-3)Gal(b1-4)Glc,-0.215
same,glycan array binding signal (z-score),[28],-0.274
same,glycan array binding signal (z-score),[29],-0.137
same,glycan array binding signal (z-score),[30],-0.228
same,glycan array binding signal (z-score),[31],-0.188
same,glycan array binding signal (z-score),Neu5Gc(a2-6)GalNAc,-0.101
same,glycan array binding signal (z-score),[32],-0.22
same,glycan array binding signal (z-score),[33],-0.215

# Reference: the supplement of paper PMC8728848
